Experimental findings from publication PMC7128310, “Negative Regulation of TLR Signaling by BCAP Requires Dimerization of Its DBB Domain” (The Journal of Immunology Author Choice, 2020) are described below.

The chains behind the UniProt entries cited, without tags or fusion partners. Where a name states a change or a piece, a line headed by the entry shows the natural chain unless it says otherwise.
UniProt P58753: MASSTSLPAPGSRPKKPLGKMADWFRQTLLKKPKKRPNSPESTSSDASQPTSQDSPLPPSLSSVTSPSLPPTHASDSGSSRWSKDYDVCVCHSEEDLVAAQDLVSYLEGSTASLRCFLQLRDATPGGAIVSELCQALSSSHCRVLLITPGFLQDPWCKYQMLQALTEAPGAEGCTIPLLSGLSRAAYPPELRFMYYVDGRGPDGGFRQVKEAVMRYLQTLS
UniProt Q99836: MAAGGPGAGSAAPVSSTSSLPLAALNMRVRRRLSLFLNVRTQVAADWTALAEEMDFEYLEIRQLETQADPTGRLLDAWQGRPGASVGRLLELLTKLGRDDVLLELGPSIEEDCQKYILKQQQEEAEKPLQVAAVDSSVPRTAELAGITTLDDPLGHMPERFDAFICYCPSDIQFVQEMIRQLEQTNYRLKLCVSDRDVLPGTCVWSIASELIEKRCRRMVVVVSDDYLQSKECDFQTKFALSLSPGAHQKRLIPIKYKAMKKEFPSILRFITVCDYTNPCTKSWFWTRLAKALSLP

In assay [1] the target is T1, BCAP(FL), full-length BCAP (2-805) (human) (UniProt Q6ZUJ8).
T1 sequence: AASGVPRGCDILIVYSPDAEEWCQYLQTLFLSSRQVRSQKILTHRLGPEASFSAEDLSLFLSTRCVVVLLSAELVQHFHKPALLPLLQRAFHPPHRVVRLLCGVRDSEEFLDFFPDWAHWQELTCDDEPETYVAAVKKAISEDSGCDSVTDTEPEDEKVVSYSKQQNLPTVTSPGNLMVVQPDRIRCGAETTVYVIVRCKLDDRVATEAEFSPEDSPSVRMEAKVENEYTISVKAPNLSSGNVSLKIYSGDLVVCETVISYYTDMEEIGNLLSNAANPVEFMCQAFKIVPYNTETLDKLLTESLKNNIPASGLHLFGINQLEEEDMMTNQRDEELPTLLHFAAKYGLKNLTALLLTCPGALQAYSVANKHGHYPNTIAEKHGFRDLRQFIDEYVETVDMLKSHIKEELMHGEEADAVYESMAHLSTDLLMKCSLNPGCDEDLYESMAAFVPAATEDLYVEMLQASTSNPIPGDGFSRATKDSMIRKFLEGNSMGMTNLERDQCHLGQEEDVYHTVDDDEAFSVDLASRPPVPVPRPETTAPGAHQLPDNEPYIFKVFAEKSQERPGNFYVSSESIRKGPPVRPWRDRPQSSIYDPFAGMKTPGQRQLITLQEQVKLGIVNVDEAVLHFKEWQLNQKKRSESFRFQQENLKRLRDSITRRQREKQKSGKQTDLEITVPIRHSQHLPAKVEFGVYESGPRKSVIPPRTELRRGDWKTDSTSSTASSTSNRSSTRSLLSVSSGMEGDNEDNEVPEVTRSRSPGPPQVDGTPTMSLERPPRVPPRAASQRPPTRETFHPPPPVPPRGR
In words: SEC; analytical size exclusion chromatography of purified, unpolymerized MAL TIR domain and BCAP(FL) after incubation at 30°C for 1 h; both purified. For orientation: SEC sorts molecules by how far they enter the pores of the column.

For the next assay, the target named is MAL TIR domain (79-221) (UniProt P58753). Nature of the assay: co-sedimentation; filament formation assay: MAL TIR alone or with BCAP constructs (molar ratio 1:10, from 10 μM stocks), 30°C for 1 h; 16,000 x g for 10 min; supernatant and pellet on SDS-PAGE, Coomassie; both purified.
In assay [2] the target is T2, FLAG-tagged BCAP TIR-DBB-ANK (1-426) (human) (UniProt Q6ZUJ8).
T2 sequence: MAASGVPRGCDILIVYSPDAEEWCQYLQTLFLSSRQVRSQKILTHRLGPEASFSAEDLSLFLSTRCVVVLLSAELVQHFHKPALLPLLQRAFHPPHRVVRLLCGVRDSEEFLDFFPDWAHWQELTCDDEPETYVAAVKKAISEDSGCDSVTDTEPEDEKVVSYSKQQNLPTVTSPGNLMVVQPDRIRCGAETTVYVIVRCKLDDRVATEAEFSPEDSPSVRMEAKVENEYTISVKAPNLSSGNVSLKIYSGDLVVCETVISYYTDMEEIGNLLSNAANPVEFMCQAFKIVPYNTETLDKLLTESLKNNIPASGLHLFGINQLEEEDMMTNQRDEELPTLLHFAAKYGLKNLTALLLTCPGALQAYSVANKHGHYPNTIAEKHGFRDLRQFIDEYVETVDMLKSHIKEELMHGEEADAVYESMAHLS
In words: co-IP; HEK293T co-transfected with FLAG-tagged BCAP constructs and Myc-MAL or Myc-MyD88; lysis 24 h after transfection in 20 mM Tris, 150 mM NaCl, 1 mM EDTA, 0.5% Nonidet P-40, pH 8; precipitation with anti-FLAG M2 beads, blot with anti-Myc.

Assay [3] addresses T3, FLAG-tagged BCAP TIR domain (1-145) (human) (UniProt Q6ZUJ8).
T3 sequence: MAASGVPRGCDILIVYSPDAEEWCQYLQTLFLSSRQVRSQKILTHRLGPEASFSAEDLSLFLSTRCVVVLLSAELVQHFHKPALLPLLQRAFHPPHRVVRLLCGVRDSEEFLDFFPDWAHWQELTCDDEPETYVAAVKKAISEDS
The assay is described as above.

Assay [4] addresses T4, FLAG-tagged full-length BCAP (human) (UniProt Q6ZUJ8).
T4 sequence: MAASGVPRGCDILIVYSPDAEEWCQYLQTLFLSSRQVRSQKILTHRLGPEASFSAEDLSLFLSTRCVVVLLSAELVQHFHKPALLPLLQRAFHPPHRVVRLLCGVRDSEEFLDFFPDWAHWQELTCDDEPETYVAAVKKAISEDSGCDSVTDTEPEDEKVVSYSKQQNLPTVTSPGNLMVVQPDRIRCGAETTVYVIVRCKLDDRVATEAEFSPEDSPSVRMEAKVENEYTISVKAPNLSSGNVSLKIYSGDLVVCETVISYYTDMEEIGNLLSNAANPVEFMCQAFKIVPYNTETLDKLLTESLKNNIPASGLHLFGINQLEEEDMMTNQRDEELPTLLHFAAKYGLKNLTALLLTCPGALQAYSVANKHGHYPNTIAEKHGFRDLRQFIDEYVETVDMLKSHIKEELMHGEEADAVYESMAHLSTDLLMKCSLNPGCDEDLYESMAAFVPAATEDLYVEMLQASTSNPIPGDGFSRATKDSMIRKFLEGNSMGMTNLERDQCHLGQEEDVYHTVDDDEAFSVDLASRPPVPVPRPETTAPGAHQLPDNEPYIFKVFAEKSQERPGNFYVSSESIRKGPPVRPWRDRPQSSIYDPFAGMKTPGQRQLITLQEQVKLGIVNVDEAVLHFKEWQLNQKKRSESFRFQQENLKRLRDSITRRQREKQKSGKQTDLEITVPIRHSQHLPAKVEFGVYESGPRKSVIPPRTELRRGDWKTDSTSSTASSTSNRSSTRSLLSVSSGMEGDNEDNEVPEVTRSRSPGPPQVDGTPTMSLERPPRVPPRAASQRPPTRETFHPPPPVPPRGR
Described as above.

Assay [5] concerns the target T5, FLAG-tagged BCAP TIR-DBB (1-311) (human) (UniProt Q6ZUJ8).
T5 sequence: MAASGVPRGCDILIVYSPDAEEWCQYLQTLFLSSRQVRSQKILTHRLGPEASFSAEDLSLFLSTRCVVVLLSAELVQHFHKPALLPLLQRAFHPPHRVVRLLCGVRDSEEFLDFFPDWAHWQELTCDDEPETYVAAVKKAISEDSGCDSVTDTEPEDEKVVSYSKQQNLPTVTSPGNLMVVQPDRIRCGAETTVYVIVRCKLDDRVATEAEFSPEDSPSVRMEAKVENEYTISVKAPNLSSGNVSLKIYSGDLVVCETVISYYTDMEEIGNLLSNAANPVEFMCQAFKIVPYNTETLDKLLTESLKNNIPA
The assay is described as above.

No constants are given. Whether binding was seen depends on the method and setting. For part of these data: In cells and extracts the contact can be indirect. Some entries that bind do so weakly or less than the wild type. For part of these data: Tags and fused reporters may be left off the sequences shown.

On to “MAL TIR domain (79-221) (from UniProt P58753 79-221) (domain or fragment)”, for which the binding result in assay [1] is listed as “no binding”; with MAL TIR domain (79-221) it was “binds”.

For “Myc-tagged MAL (from UniProt P58753 1-221)”, the binding result in assay [2], in assay [3], in assay [4] and in assay [5] was “binds” each time.

For the substance “Myc-tagged MyD88 (from UniProt Q99836 1-296)”, the binding result in assay [2], in assay [4] and in assay [5] was “binds” in each case.
